Part of at least one peptide drawing is inferred or uncertain, most often the ends. Some compounds share one wording; it may come from a single statement. Residues, ends and D or L forms follow the SMILES beside them. *: point of attachment. Boc = CC(C)(C)OC(=O)*; OBn = c1ccc(CO*)cc1
Columns and labels:
[1] = molecular target: T1, human immunodeficiency virus (HIV-1) glycoprotein gp120 (Human immunodeficiency virus type 1 group M subtype B, UniProt P03375); assay type: binding; details: HSBCD4-M.23 cells; for concentration giving 50% inhibition of gp120 binding, fold higher than for CPF(LL): in comparison with CPF(LL); for inhibition of gp120 binding to CD4 (corrected mean fluorescence of CD4-expressing cells): gp120 preincubated with peptide 1 hour 37° C., about 50 μM to 900 μM
T1 construct: a solution of gp120 (20 μg/ml) (synthesized in vitro from baculovirus and obtained from MicroGeneSys); purchased MicroGeneSys, West Haven, Conn; host or cells: gp120 from baculovirus expression; CD4 on HSBCD4-M.23 cells (HSB-2 clone transfected with CD4 cDNA)
Procedure: The peptides prepared as described in Example 1 were characterized as to their ability to bind to the human immunodeficiency virus (HIV-1) glycoprotein gp120. This ability was assayed on the basis of the peptides ability to inhibit binding of gp120 to the human CD4 protein.
On the day of the assay the peptides were diluted 10-fold in phosphate buffered saline (PBS) and 2-fold serial dilutions made into PBS previously adjusted to the same DMSO concentration (10%). 25 μl each of each peptide solution and a solution of gp120 (20 μg/ml) (synthesized in vitro from baculovirus and obtained from MicroGeneSys, West Haven, Conn.) were combined and incubated at 37° C. for 1 hour. A total of 3-5×10^5 HSBCD4-M.23 cells [derived from a clone of the pre-T cell leukemia line HSB-2 (obtained from the American Type Culture Collection (ATCC), Rockville, Md.) which expresses human CD4 as a result of transfaction of CD4 cDNA sequences; Diamond et al., Proc. Natl. Acad. Sci. 87: xxxx (1990)] were pelleted in the walls of a 96-well V-bottom microtiter plate, resuspended with the preincubated gp 120-peptide mixture and allowed to incubate at 4° C. for 1 hour. The cells were then pelleted and resuspended in 50μl of a solution containing rabbit anti-gp120 antibody (diluted 1:400 in PBS; MicroGeneSys, West Haven, Conn.) and incubated at 4° C. for 30 min. The cells were again pelleted, washed with 100 μl PBS and resuspended in 50μl of a solution containing fluorescein isothiocyanate (FITC)-conjugated goat anti-rabbit antibody (diluted 1:20; Tago) and incubated at 4° C. for 30 min. The cells were pelleted and washed as before, and resuspended in 100 μl of a solution containing propidium iodine at a concentration of 25 μg/ml and transferred to tubes containing 400 μl PBS for flow cytometric analysis on an Epics V (Coulter) for FAtScan (Betton-Dickinson,Mountainview, Calif.). Cells were gated on propidium iodide to exclude dead cells. Green fluorescence was collected on the linear amplifier and the mean fluorescence calculated.

gp120 = molecular target: T2, gp120 (Human immunodeficiency virus type 1 group M subtype B, UniProt P03375); experiment: gp120 binding to CD4 after peptide incubation, dilution and ultrafiltration; set-up: species or system HIV-1
T2 construct: a solution of gp120 (20 μg/ml) (synthesized in vitro from baculovirus and obtained from MicroGeneSys); purchased MicroGeneSys, West Haven, Conn; host or cells: gp120 from baculovirus expression; CD4 on HSBCD4-M.23 cells (HSB-2 clone transfected with CD4 cDNA)

[2] = test system: HTLV-MN strain of the virus; experiment: Inhibition of HIV-1 (HTLV-MN) infection of H9 cells, p24 antigen ELISA; assay type: cell-based; details: peptide at least 100 μg/ml

| Compound | inhibition of gp120 binding to CD4 (corrected mean fluorescence of CD4-expressing cells) [1] | other results |
| --- | --- | --- |
| COC(=O)C(=O)N1CCC[C@@H]1C(=O)N[C@H](Cc1ccccc1)C(=O)N[C@@H](CC(C)C)C(=O)OCc1ccccc1 [CPF(+Leu), N-carbomethoxylcarbonyl-D-Pro-D-Phe-L-Leu-OBn] | – | concentration giving 50% inhibition of gp120 binding, fold higher than for CPF(LL) [1]: 2-5 fold |
| COC(=O)C(=O)N1CCC[C@H]1C(=O)N[C@@H](Cc1ccccc1)C(=O)OC [CPF(CMe), N-carbomethoxycarbonyl-L-Pro-L-Phe-OMe] | – | concentration giving 50% inhibition of gp120 binding, fold higher than for CPF(LL) [1]: 2-5 fold |
| COC(=O)C(=O)N1CCC[C@@H]1C(=O)N[C@H](Cc1ccccc1)C(=O)OCc1ccccc1 [CPF(DD), N-carbomethoxylcarbonyl-D-Pro-D-Phe-OBn] | capable of inhibiting the binding of gp120 to purified CD4 | reversibility of peptide binding to gp120 (gp120; dilution and ultrafiltration repeated three times, final CPF dilution more than 8000-fold): not rapidly reversible; inhibition of gp120 binding to CD4 before and after dilution and ultrafiltration (gp120; peptide 50-800 μg/ml, 37° C. 1 hour, Centricon-30, compared to untreated gp120): inhibited to a similar extent both before and after dilution and ultrafiltration; viral antigen (p24) production [2]: completely inhibit viral antigen production |
| COC(=O)C(=O)N1CCC[C@@H]1C(=O)N[C@@H](Cc1ccccc1)C(=O)OCc1ccccc1 [CPF(DL), N-carbomethoxylcarbonyl-D-Pro-L-Phe-OBn] | capable of inhibiting the binding of gp120 to purified CD4 | – |
| COC(=O)C(=O)N1CCC[C@H]1C(=O)N[C@H](Cc1ccccc1)C(=O)OCc1ccccc1 [CPF(LD), N-carbomethoxylcarbonyl-L-Pro-D-Phe-OBn] | capable of inhibiting the binding of gp120 to purified CD4 | – |
| COC(=O)C(=O)N1CCC[C@H]1C(=O)N[C@@H](Cc1ccccc1)C(=O)OCc1ccccc1 [CPF(LL), N-carbomethoxyl-carbonyl-L-Pro-L-Phe-OBn] | capable of inhibiting the binding of gp120 to purified CD4 | – |
| CC(C)(C)OC(=O)N1CCCC1C(=O)NC(Cc1ccccc1)C(=O)OCc1ccccc1 (stereo not drawn) [CPF(N-Boc), N-butoxycarbonylprolylphenylalanylbenzylester] (Boc-Pro-Phe-OBn; configuration not given here) | does not inhibit gp120 binding to CD4-expressing human cells | – |
